Data: PubChem BioAssay AID1768 (National Center for Advancing Translational Sciences (NCATS), 2009)
Hit rate of the full screen: of about 270,000 compounds, about 620 (0.23%) were called active. Inconclusive results, whose numbers are uncertain, are shown with a selection of clear calls. Calls come from the whole dose curve; as a rule, active = well fitted inhibition curve with a large enough effect in the polarisation, with a control signal flat (not every such curve was filed as active); inconclusive = small, poorly fitted or top-dose-only effect, or effect the other way, or a change in a side signal; inactive = no such curve, though single readings can be large or run the other way; the % refers to the polarisation. A potency beside an inconclusive call is a rough fit, not a confirmed value. “Side channel” marks fits to a control or component signal instead of the main read-out.

Target: Menin (Homo sapiens) (UniProt O00255)
Sequence of UniProt O00255 (O00255 whole entry, looked up): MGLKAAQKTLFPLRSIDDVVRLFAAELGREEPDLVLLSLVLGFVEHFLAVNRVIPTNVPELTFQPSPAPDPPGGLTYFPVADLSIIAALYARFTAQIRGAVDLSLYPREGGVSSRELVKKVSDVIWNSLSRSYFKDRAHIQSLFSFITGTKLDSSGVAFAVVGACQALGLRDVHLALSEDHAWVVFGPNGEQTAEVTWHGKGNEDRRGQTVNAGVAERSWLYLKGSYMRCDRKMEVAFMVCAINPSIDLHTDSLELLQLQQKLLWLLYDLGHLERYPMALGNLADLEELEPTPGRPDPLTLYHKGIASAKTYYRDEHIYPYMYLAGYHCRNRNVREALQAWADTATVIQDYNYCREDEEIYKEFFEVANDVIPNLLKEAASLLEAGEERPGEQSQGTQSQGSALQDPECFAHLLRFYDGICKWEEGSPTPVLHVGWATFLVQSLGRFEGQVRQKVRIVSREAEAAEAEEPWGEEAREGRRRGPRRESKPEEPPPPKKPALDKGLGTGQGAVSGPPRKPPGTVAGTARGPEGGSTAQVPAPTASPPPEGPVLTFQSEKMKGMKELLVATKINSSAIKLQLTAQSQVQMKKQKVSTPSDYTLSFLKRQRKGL
Assay: qHTS Assay for Inhibitors Targeting the Menin-MLL Interaction in MLL Related Leukemias: Competition With Texas Red Labeled MLL-derived Mutant Peptide; for FP activity change, negative = inhibition: % of control where 0% means no effect
Details: fluorescence polarization; FP activity change, negative = inhibition: at 61.6 µM (top of the series)
Potency is the fitted concentration of half-maximal effect; tags give direction and shape of the fitted curve or compound fluorescence and quenching.

Compound | Potency | FP activity change, negative = inhibition
CCC(=O)Nc1c(C(=O)Nc2cccc(OC)c2)oc2ccccc12 | inconclusive: 25.1 µM [quencher, side channel, single point] | –
CCOC(=O)C1CCN(C(=O)Cc2ccc(OC)c(OC)c2)CC1 | inconclusive: 3.98 µM [inhibitor, single point] | –
CC1SC(C)C(=O)N(CC(=O)Nc2ccc([N+](=O)[O-])cc2)C1=O (centres undefined) | inconclusive: 7.94 µM [quencher, side channel, full curve] | –
O=C(O)c1ccccc1-c1c2cc(I)c(=O)c(I)c-2oc2c(I)c(O)c(I)cc12 | inconclusive: 1.12 µM [fluorescent, side channel, full curve] | –
O=C(O)c1cccc(OCCN2CCCC2=O)c1 | – | inactive: -12.9%
CC1=NN(c2ccc(Br)cc2)C(=O)/C1=C/c1ccc(-c2ccccc2C(=O)O)o1 | inconclusive: 28.2 µM [quencher, side channel, single point] | –
O=C(NNC(=O)c1cc(-c2ccc(Cl)c(Cl)c2)nc2ccccc12)Nc1ccccc1 | inconclusive: 2.51 µM [quencher, side channel, full curve] | –
CCOC(=O)C1CCN(C(=O)COc2ccc(Cl)cc2C)CC1 | inconclusive: 8.91 µM [fluorescent, side channel, partial curve] | –
CC(C)Cn1c(N2CCN(C(=O)/C=C/c3ccccc3)CC2)nc2ccccc21 | inconclusive: 3.55 µM [fluorescent, side channel, full curve] | –
CC(C)N(c1ccccc1)c1ccc(NC(=S)NCCN(C)C)cc1 | inconclusive: 39.8 µM [inhibitor, single point] | –
CCN(CC)c1ccc(/C=c2/sc3nnc(-c4ccccc4C)n3c2=O)cc1 | inconclusive: 7.94 µM [fluorescent, side channel, partial curve] | –
O=[N+]([O-])c1ccc(NC(=S)NCCc2ccccc2)cc1 | inconclusive: 25.1 µM [quencher, single point] | –
S=C(NCc1ccc(Cl)cc1)Nc1ccccc1 | inconclusive: 28.2 µM [quencher, side channel, single point] | –
FC(F)(F)c1cc(-c2ccco2)nc2ncnn12 | – | inactive: 2.14%
COc1ccc(C(=O)C2CCCN(Cc3cccn3-c3ccccn3)C2)c(C)c1 (centres undefined) | inconclusive: 3.98 µM [fluorescent, side channel, partial curve] | –
O=C(Nc1cccnc1)c1cc2c(ccc3ccccc32)o1 | – | inactive: 8.04%
CCN(CC)S(=O)(=O)c1ccc(N2CCN(C)CC2)c(NC(=O)c2cc(=O)c3ccccc3o2)c1 | inconclusive: 44.7 µM [inhibitor, single point] | –
Cc1sc2ncnc(NCCCN3CCCC3=O)c2c1C | inconclusive: 28.2 µM [inhibitor, single point] | –
Oc1sc(C=Nc2ccccc2)c2ccccc12 | inconclusive: 22.4 µM [quencher, side channel, partial curve] | –
Cn1c(=O)c2[nH]c(-c3ccccc3Cl)c(O)c2n(C)c1=O | inconclusive: 25.1 µM [fluorescent, side channel, single point] | –

Compound | Potency | FP activity change, negative = inhibition
COc1ccccc1OCC(=O)c1[nH]c(C)c(C(C)=O)c1C | inconclusive: 39.8 µM [inhibitor, single point] | –
O=C(c1ccco1)N1CCN(S(=O)(=O)c2ccc(S(=O)(=O)NC3CC3)cc2)CC1 | – | inactive: -2.57%
O=S1(=O)C2CC3C=CC2(O3)C(O)C(Cc2ccccc2)N1Cc1cccc(F)c1 (centres undefined) | – | inactive: 37%
Cc1cc2nc(-c3ccc(SCC(=O)Nc4ccc(S(=O)(=O)N5CCCC5)cc4)nc3)[nH]c2cc1C | – | inactive: -17.8%
CC(C)CCNC(=O)CCCn1c(=O)[nH]c2ccc(Br)cc2c1=O | inconclusive: 17.8 µM [fluorescent, side channel, single point] | –
Cc1ccc(OCC(=O)NC(=S)Nc2cccc(NC(=O)c3ccccc3Cl)c2)cc1 | inconclusive: 31.6 µM [inhibitor, single point] | –
COc1ccc(OCC(=O)Nc2c(C(=O)N(CCN(C)C)Cc3ccco3)oc3ccccc23)cc1 | – | inactive: -14.8%
COc1ccc(NS(=O)(=O)c2cccc(NC(=O)CCC(=O)c3ccc(Cl)cc3)c2)cc1 | inconclusive: 25.1 µM [quencher, side channel, partial curve] | –
O=C(Nc1ccc(-c2cn3c(n2)SCC3)cc1)c1ccc2c(c1)OCO2 | inconclusive: 12.6 µM [quencher, side channel, partial curve] | –
O=C(O)Cc1ccc(NC(=O)Nc2ccc(Br)cc2)cc1 | inconclusive: 17.8 µM [quencher, side channel, partial curve] | –
CCCCCCCC1(C)NC(=O)N(c2ccccc2)N1 (centres undefined) | inconclusive: 31.6 µM [inhibitor, single point] | –
O=C(NNC(=O)c1ccc2ccccc2c1O)Nc1ccc(F)cc1 | inconclusive: 39.8 µM [quencher, side channel, single point] | –
Cc1ccc(NC(=O)C2CCN(S(=O)(=O)c3ccc4c(c3)CCCC(=O)N4)CC2)cc1N(C)C | inconclusive: 25.1 µM [quencher, side channel, single point] | –
CC(C)(C)c1ccc(/C=C/C(=O)Nc2ccc3c(c2)OCCO3)cc1 | inconclusive: 7.08 µM [quencher, side channel, single point] | –
COc1ccc(C)cc1-n1nnnc1SCC(=O)NC(=O)NCc1ccco1 | inconclusive: 28.2 µM [quencher, side channel, single point] | –
O=[N+]([O-])c1ccc(N/N=C2\CC3CC=CC23)c([N+](=O)[O-])c1 (centres undefined) | inconclusive: 20 µM [quencher, side channel, partial curve] | –
CC(C)(C)S(=O)(=O)c1cnc2c(-c3ccsc3)cnn2c1N | inconclusive: 25.1 µM [inhibitor, partial curve] | –
CC(=O)NC(NC(=S)Nc1ccc(N=Nc2ccccc2C)cc1C)C(Cl)(Cl)Cl (centres undefined) | inconclusive: 5.62 µM [quencher, side channel, partial curve] | –
COc1ccc(-c2nc(SC)n(C(=O)c3ccco3)n2)cc1 | inconclusive: 28.2 µM [inhibitor, single point] | –
CCc1nc(SCC(=O)N2CCOCC2)c2c(=O)n(C)c(=O)n(C)c2n1 | inconclusive: 39.8 µM [inhibitor, partial curve] | –

Compound | Potency | FP activity change, negative = inhibition
O=c1c2c([N+](=O)[O-])cc([N+](=O)[O-])cc2sn1-c1ccc(Br)cc1 | inconclusive: 28.2 µM [quencher, side channel, partial curve] | –
CN(Cc1ccccc1)C(=O)c1ccccc1-c1ccccc1 | inconclusive: 10 µM [fluorescent, side channel, partial curve] | –
CCOC(=O)C(NCc1ccccn1)(NC(=O)c1cccnc1)C(F)(F)F (centres undefined) | – | inactive: 10.3%
COc1cc2oc3ccccc3c(=O)c2cc1OC | inconclusive: 39.8 µM [inhibitor, single point] | –
CN(C)c1ccc(NC(=O)Cn2ncn3c(cc4ccccc43)c2=O)cc1 | inconclusive: 28.2 µM [quencher, side channel, single point] | –
O=C(CSc1nc2nc(-c3cccs3)cc(C(F)(F)F)c2c(=O)[nH]1)Nc1c(F)c(F)c(F)c(F)c1F | inconclusive: 8.91 µM [quencher, side channel, partial curve] | –
COc1ccc(/C=C/C(=O)C2CC2)cc1Cn1nc(C)c([N+](=O)[O-])c1C | inconclusive: 10 µM [fluorescent, side channel, partial curve] | –
Cc1nc(NC(=O)/C=C/c2ccccc2)sc1C(=O)Nc1ccccc1 | inconclusive: 22.4 µM [inhibitor, single point] | –
Cc1ccc(OCC(=O)NNC(=S)NC(=O)c2cccs2)c(C)c1 | inconclusive: 35.5 µM [quencher, side channel, single point] | –
CNC(=O)c1cnn(-c2nc(-c3ccc(OC)cc3)cs2)c1C(F)(F)F | – | inactive: 25.7%
COc1ccc(CNc2ncc(-c3ccc(F)cc3)n2C)c2ccccc12 | inconclusive: 0.794 µM [inhibitor, full curve, poor fit] | –
COc1ccc(O)c(-c2cc(-c3ccccc3Cl)[nH]n2)c1 | inconclusive: 28.2 µM [quencher, partial curve] | –
CC(C)c1ccc(NC(=O)Cc2ccc(NC3=NC4CS(=O)(=O)CC4S3)cc2)cc1 (centres undefined) | inconclusive: 39.8 µM [inhibitor, single point] | –
N/C(=N\OC(=O)N1c2ccccc2Sc2ccccc21)c1ccc(Br)cc1 | inconclusive: 39.8 µM [quencher, side channel, single point] | –
COc1cccc(/C=C/C(=O)Oc2ccc(C(=O)c3ccc(F)cc3)cc2)c1 | inconclusive: 39.8 µM [inhibitor, single point] | –
O=C(N/N=C/c1ccccc1Cl)c1[nH]c2ccc(Br)cc2c1-c1ccccc1 | inconclusive: 11.2 µM [inhibitor, single point] | –
O=[N+]([O-])c1ccc(-c2cnc(SCc3ccccc3Cl)[nH]2)cc1 | inconclusive: 11.2 µM [quencher, side channel, partial curve] | –
CCCn1c(-c2ccc(F)cc2)nc2c(NC3CCN(Cc4ccccc4)C3)nc(C)nc21 (centres undefined) | inconclusive: 14.1 µM [inhibitor, partial curve] | –
O=C(Cn1nnc(-c2ccccc2F)n1)OCC(=O)c1ccccc1 | inconclusive: 0.631 µM [inhibitor, full curve, poor fit] | –
